According to ChEMBL document CHEMBL1156829:
Over roughly 5,400 compounds, “IFI” has its median near 2; the highest 2% begin near 22. Some of the results follow.

Test: NOVARTIS: Inhibition Frequency Index (IFI) - the number of HTS assays where a compound showed > 50% inhibition/induction, expressed as a percentage of the number of assays in which the compound was tested.
Assay type: functional
With `COC(=O)C1=C(C)NC2=C(C(=O)c3ccccc32)C1c1ccc(OCC#N)c(OC)c1` (stereo unspecified) the IFI was 0%. `CCCN1CCc2c(sc3nc(SC)n(-c4ccccc4)c(=O)c23)C1` gave an IFI of 11.5%. Work on `COc1cccc(N2C(N)=NC(N)=NC2(C)C)c1` yielded an IFI of 0%. `C(=NNc1nc2ccccc2[nH]1)c1cccc(Oc2ccccc2)c1` gave an IFI of 0%. `O=C(c1cccs1)N1CCN(c2ccc([N+](=O)[O-])c(NC3CC3)c2)CC1` gave an IFI of 2.5%. `COc1ccc(C(=O)ON=C(N)Cc2ccc(Cl)cc2Cl)cc1[N+](=O)[O-]` showed an IFI of 0%. Work on `CC(=NO)c1ccc(NC2=C(N3CCCCC3)C(=O)c3ccccc3C2=O)cc1` yielded an IFI of 0%. Molecule `CCCC(C)C(C(=O)Nc1c(C)cccc1C)N1C(=O)c2cc(NC(C)=O)ccc2NC(=O)[C@@H]1CCC(=O)O` (stereo partly specified) has an IFI of 3.66%. In the case of `CS(=O)(=O)Nc1cccc(-c2cnc(N)c(-c3ccc(C(=O)N4CCOCC4)cc3)n2)c1`, the IFI was 0%. Work on `CCN(CC)c1scc(-c2ccc(Br)cc2)[s+]1` yielded an IFI of 7.69%. In the case of `CCOC(=O)NC(=O)N1CCC(c2nc(-c3cc(C(C)(C)C)c(O)c(C(C)(C)C)c3)cs2)CC1`, the IFI was 0%. For `CC(=O)c1ccc(N2C(C)c3nc4ccccc4c(=O)n3C2c2cccc(O)c2)cc1` (stereo unspecified), the IFI was 7.14%. In the case of `Nc1nonc1-n1nnc(-c2ccccc2)c1C(=O)NN=Cc1ccc(F)c(Br)c1`, the IFI was 0%. `C/C=C/C(C(=O)NCCCC)N1C(=O)c2cc(NC(C)=O)ccc2NC(=O)[C@@H]1C` (stereo partly specified) showed an IFI of 1.24%. Work on `C[N+](C)(CCCC(=O)c1ccc(C(=O)CCC[N+](C)(C)Cc2ccccc2Cl)cc1)Cc1ccccc1Cl` yielded an IFI of 0%. Work on `O=C(Oc1ccccc1-c1nc2ccccn2c1NC1CCCCC1)c1ccc([N+](=O)[O-])cc1Cl` yielded an IFI of 2.8%. In the case of `O=C(COc1ccc(Cl)cc1)NCc1ccc(CNc2noc3ccccc23)cc1`, the IFI was 5.56%. Molecule `N#Cc1ccc2c(c1)nc1c3ccc4c5c(ccc(c(=O)n21)c53)C(=O)NC4=O` has an IFI of 16.4%. With `c1ccc(Cn2c(N=Nc3c(Nc4ccccc4)ccc4ccccc34)nc3ccccc32)cc1` the IFI was 15.1%. `CCOC(=O)c1cnc2ccc(OC)cc2c1NCc1cccs1` showed an IFI of 1.85%. `CC(=O)N(C)C1=C(N2CCOCC2)C(=O)c2ccccc2C1=O` showed an IFI of 22.1%. In the case of `O=c1c2c3c(sc2[nH]c(=S)n1C1CCCCC1)CN(Cc1ccccc1)CC3`, the IFI was 0%. In the case of `CC(C)NC(=O)[C@@H]1C[C@@H](NCc2cccnc2)CN1Cc1ccc2ccccc2c1`, the IFI was 0%. `COc1cc(Nc2nccn3c(-c4ccsc4)cnc23)cc(OC)c1OC` gave an IFI of 8.33%. Work on `CC(C)CNC(=O)c1cnc(NCCCn2ccnc2)nc1NC1CCCC1` yielded an IFI of 2.88%. Work on `COc1ccc(-c2cnc3ccc(NCc4cccc(Cl)c4)nn23)cn1` yielded an IFI of 0%. Molecule `CC(=O)N1c2ccccc2NC2=C(C(=O)CCC2)C1c1ccc([N+](=O)[O-])cc1` (stereo unspecified) has an IFI of 5%. Molecule `CCOC(=O)c1c(C)[nH]c(C)c1S(=O)(=O)N1CCCC(C(=O)N2CCN(c3cc(C)ccc3C)CC2)C1` (stereo unspecified) has an IFI of 0%. With `CCOc1ccc2[nH]c(=O)c(CN(CCc3ccccc3)C(=O)c3cnccn3)cc2c1` the IFI was 3.23%. For `Cc1ccc(N2C(=O)C3C(C2=O)C2(c4ccccc4)C(=O)C3(c3ccccc3)C(c3ccccc3)=C2c2ccccc2)cc1Br` (stereo unspecified), the IFI was 0%. In the case of `CC(=O)N(C1=C(N2CCOCC2)C(=O)c2ccccc2C1=O)c1ccc(C(C)C)c(C)c1`, the IFI was 7.69%. For `Cc1cccc(-n2c(CNC(=O)c3ccc(S(=O)(=O)N4CCCCC4)cc3)nnc2SCC(=O)Nc2nccs2)c1`, the IFI was 1.19%. In the case of `O=C(Nc1ccc(C(F)(F)F)cc1)c1ccc(NCCCN2CCCCCC2)c([N+](=O)[O-])c1`, the IFI was 0%. Molecule `O=C(NNc1ccccc1F)c1c(F)cccc1Cl` has an IFI of 0.8%. For `COC(=O)C1CCCN1S(=O)(=O)c1ccc2ccccc2c1` (stereo unspecified), the IFI was 0%. With `CCN(CC)c1ccc(C=NNC(=O)c2ccc(Nc3nc(-c4ccccc4)cs3)cc2)c(O)c1` the IFI was 27.3%. Molecule `O=C(c1cc2n(n1)C(C(F)(F)F)CC(c1cccs1)N2)N1CCN(C(c2ccccc2)c2ccccc2)CC1` (stereo unspecified) has an IFI of 0%. Work on `CCCCc1ccc(C(=O)NCCCCNc2ccnc3cc(Cl)ccc23)cc1` yielded an IFI of 2.13%. `CCCOC(=O)C1=C(C)NC2=C(C(=O)CC(c3ccc(OC)cc3)C2)C1c1ccccc1Cl` (stereo unspecified) gave an IFI of 2.35%. Molecule `CC(C)c1ccc2c(c1)c1c3c([n+](C)ccn32)CCC1` has an IFI of 4.17%. Molecule `COc1cccc(C(=O)N(CCCC(C)Nc2cc(OC)cc3cccnc23)Cc2ccc(OC)c(OC)c2)c1` (stereo unspecified) has an IFI of 3.81%. For `CCOC(=O)c1cnc2ccc(C(C)C)cc2c1O`, the IFI was 0%. With `CC(c1nc2ccc(Cl)cc2c(=O)n1C)N1CCN(S(=O)(=O)c2cccc3ccccc23)CC1` (stereo unspecified) the IFI was 0%. For `COc1nncc(-c2cnnc(SC)n2)n1`, the IFI was 4.62%. Molecule `COc1ccc(C2CC(=O)C3=C(C2)NC(C)=C(C(=O)OC(C)C)C3c2cccc(Cl)c2)cc1OC` (stereo unspecified) has an IFI of 6.02%. With `Cc1ccc(-[n+]2c(-c3ccccc3)cn3c2CCCCC3)cc1` the IFI was 6.42%. `CC(C)(C)CC(C)(C)c1ccc(O)c(CN2CCN(CCC#N)CC2)c1` gave an IFI of 0%. Molecule `C=C(C)[C@@H]1CC=C(CN2C[C@H](NC(=O)c3ccc(OC)cc3OC)C[C@H]2C(=O)OC)CC1` has an IFI of 1.74%. With `CC(=O)N(C1=C(N2CCCC2)C(=O)c2ccccc2C1=O)c1ccccc1C` the IFI was 0%. Work on `Cc1cccc(-c2cc(C(=O)NC3CCN(Cc4ccccc4)CC3)cc(-n3cnnn3)c2)c1` yielded an IFI of 1.71%. `CN1CCN(C(=O)c2cccc(-c3nc(-c4ccncc4)cnc3N)c2)CC1` gave an IFI of 0%. For `CCCCCCCCCC[n+]1c(C)n(CC)c2cc(Cl)c(Cl)cc21`, the IFI was 0%. With `CC(C)c1ccc(/C=C/C(=O)NCc2ccco2)cc1` the IFI was 0%. Work on `O=[N+]([O-])c1ccc(-c2ccc(C=NNc3ccccn3)o2)cc1` yielded an IFI of 0%. With `Oc1ccccc1C=NNc1nnc2c3ccccc3n(Cc3ccccc3)c2n1` the IFI was 0%. `c1ccc(-c2nc(Nc3ccncc3)cc(-c3cccnc3)n2)cc1` gave an IFI of 0%. Molecule `O=c1[nH]c(SCC(O)c2ccc(Cl)c(Cl)c2)nc2sc3ccccc3c12` (stereo unspecified) has an IFI of 3.73%. With `CCOc1ccc2nc(Sc3nc(Nc4cccc(C)c4)nc(Nc4cccc(C)c4)n3)sc2c1` the IFI was 1.21%. Molecule `CO[C@H]1O[C@@H]2COC(c3ccccc3)O[C@H]2[C@@H](O)[C@@H]1OCc1ccccc1` (stereo partly specified) has an IFI of 1.59%. In the case of `CCc1ccc2[nH]c(=O)c(CN(CCN(CC)CC)C(=S)NCCCN(C)C)cc2c1`, the IFI was 5.36%. In the case of `N/C(=N\C(=O)c1nc(Cl)c(N)nc1N)NCc1ccc(Cl)c(Cl)c1`, the IFI was 2.82%. Molecule `COc1ccc(C2CC(=O)C3=C(C2)NC(C)=C(C(=O)OC(C)C)C3c2ccc(F)cc2)cc1OC` (stereo unspecified) has an IFI of 4.71%. For `COC(=O)C1=CN(Cc2ccc(OC)cc2)C=C(C(=O)OC)C1c1cccc([N+](=O)[O-])c1`, the IFI was 1.16%. Work on `C=CC[n+]1c(C=C2C=CN(C)C=C2)sc2ccccc21` yielded an IFI of 15.4%. Work on `Brc1ccc(-c2cn3c([n+]2-c2ccccc2)SCC3)cc1` yielded an IFI of 0.741%. `CC(C)CC[n+]1ccccc1C=Cc1ccc(N(C)C)cc1` showed an IFI of 15.4%. With `CN(C)CCNc1ncc(C(=O)NCc2ccccc2)c(NCCc2ccccc2)n1` the IFI was 1.92%. For `CC(C)(C)CC(C)(C)Nc1c(-c2ccccc2OC(=O)c2ccc(Cl)cc2Cl)nc2ccccn12`, the IFI was 2.83%. `CNC(=O)NNC(=O)c1cccnc1` showed an IFI of 2.75%. For `CN(Cc1ccccc1)c1nc2c(c(=O)[nH]c(=O)n2C)n1CCCSc1ncccn1`, the IFI was 2.7%. `O=C(NCCc1ccccc1)c1cnc(NCCC2=CCCCC2)nc1NCC1CCCCC1` gave an IFI of 3.85%. `CC(C(=O)NN=C1CCN(C)CC1)N(c1ccccc1)S(C)(=O)=O` (stereo unspecified) gave an IFI of 0%. `O=C(Nc1ccc(-n2cnnn2)cc1)C1CCN(Cc2cc3ccccc3o2)CC1` showed an IFI of 0%. Work on `CC(=O)Nc1cccc(NC(=O)CSc2ccc3nnc(-c4ccc(F)cc4)n3n2)c1` yielded an IFI of 0%. Work on `O=C1N(c2ccccc2)C[C@@H]2C[C@@H](c3ccc4nsnc4c3)N3CCC[C@@]123` yielded an IFI of 0%. In the case of `O=C(NCc1cccnc1)[C@@H]1C[C@H](NC2CCN(CCc3ccccc3)CC2)CN1Cc1ccc(Cl)cc1`, the IFI was 2.88%. `COc1cccc2cc(C(=O)Nc3cccc(C(F)(F)F)c3)c(=O)oc12` gave an IFI of 2.33%. Molecule `CCN(CC)c1ccc(C=Cc2cccc[n+]2CC)cc1` has an IFI of 8.33%. `COc1ccc(C(=O)C(C)[n+]2ccccc2-c2ccccn2)cc1` (stereo unspecified) gave an IFI of 0%. With `COCCn1c(SCC(=O)c2ccc(C)cc2C)nnc1-c1ccco1` the IFI was 0%. In the case of `CCCCN(CCCC)[P+](N(CCCC)CCCC)(N(CCCC)CCCC)N(CCCC)CCCC`, the IFI was 27.3%. Molecule `CCOC(=O)c1ccc(NCc2c(C)[nH]c3ccccc3c2=O)cc1` has an IFI of 4.17%. Molecule `CCOC(=O)C1(Cc2ccc(OC)cc2)CCN(C(=O)c2scc3c2OCCO3)CC1` has an IFI of 0%. `CCOc1ccc(C2C(C(=O)OCCc3ccccc3)=C(C)NC3=C2C(=O)CC(C)(C)C3)cc1` (stereo unspecified) gave an IFI of 3.57%. In the case of `Nc1cccc(C(=O)Nc2ccc(Oc3cccc(Oc4ccc(NC(=O)c5cccc(N)c5)cc4)c3)cc2)c1`, the IFI was 0%. `COc1ccc(NC(=O)C2c3ccccc3C(=O)N(CC(C)C)C2c2cccs2)cc1Cl` (stereo unspecified) gave an IFI of 3.12%. In the case of `CC(C)N(C)Cc1cc(-c2nc3ccccc3s2)ccc1O`, the IFI was 8.04%. Work on `CC(C)N(CC(=O)Nc1cc(C(C)(C)C)nn1-c1ccc(Cl)cc1)C(=O)c1ccc(C(C)(C)C)cc1` yielded an IFI of 1.89%. `COc1ccccc1Nc1nc(NCC2CCCO2)c2ccccc2n1` (stereo unspecified) showed an IFI of 0%. In the case of `CCC(C)NCC(O)(c1ccc(Cl)cc1)c1ccc(Cl)cc1` (stereo unspecified), the IFI was 1.32%. In the case of `Cn1c(=O)[nH]c(=O)c2c1nc(N1CCCCCC1)n2CC(O)COc1ccc([N+](=O)[O-])cc1` (stereo unspecified), the IFI was 2.38%. In the case of `COc1ccccc1NC(=O)CCCC(=O)OC(C)C(=O)c1ccccc1` (stereo unspecified), the IFI was 0%. `Cn1nc(C(C)(C)C)cc1C(=O)N1CCCN1C(=O)CNC(=O)c1ccco1` showed an IFI of 0%. `CC(C)NC(=O)c1ccc2c(c1)N=C(c1ccccc1)N(C1CC1)C2` showed an IFI of 2.47%. For `OC(CNCC1CCCO1)Cn1c2ccc(Br)cc2c2cc(Br)ccc21` (stereo unspecified), the IFI was 11.7%. `COC(=O)c1ccnn(-c2ccccc2)c1=O` showed an IFI of 2.6%.
